# Assay results from PubChem BioAssay AID540317 (National Center for Advancing Translational Sciences (NCATS), 2011).
# In all, about 390,000 compounds went through this assay and about 2,200 (0.56%) were called active. The shares of active, inactive and inconclusive entries below differ from those in the screen. Calls follow the shape of the dose curve; as a rule, active = well fitted inhibition curve with a large enough effect; inconclusive = small, poorly fitted or top-dose-only effect; inactive = no such curve, though single readings can be large or run the other way. A potency beside an inconclusive call is a rough fit, not a confirmed value.
# Biological target: Chromobox protein homolog 1 (Homo sapiens) (UniProt P83916)
# Chain of UniProt P83916 (P83916 whole entry, looked up): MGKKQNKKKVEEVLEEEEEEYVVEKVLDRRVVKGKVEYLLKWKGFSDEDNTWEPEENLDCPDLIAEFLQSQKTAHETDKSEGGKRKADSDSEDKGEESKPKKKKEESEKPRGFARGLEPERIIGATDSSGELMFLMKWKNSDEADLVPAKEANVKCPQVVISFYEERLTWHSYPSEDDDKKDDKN
# Assay: HTS for Inhibitors of HP1-beta Chromodomain Interactions with Methylated Histone Tails; also: nearly all actives have a fitted effect of over 70% in size
# Details: AlphaScreen HP1-beta / biotin-H3K9me3 peptide binding; series mostly up to 114 µM
# Summary of the method: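 HP1-beta protein (50 nM final) preincubated 30 min at room temperature with biotinylated H3(1-18)K9me3 peptide (50 nM) in PBS pH 7.4, 0.01% Tween-20, then compound added for 30 min. AlphaScreen streptavidin donor/nickel chelate acceptor beads (10 ug/mL final), 30 min dark, luminescence read.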
# Potency is read from the fitted curve at half-maximal effect; tags tell the direction and shape of the fitted curve.
row,Compound,Potency
1,Cc1ncc(CO)c(/C=N/NC(=S)Nc2ccc(C(C)C)cc2)c1O,"inconclusive: 5.62 µM [inhibitor, full curve]"
2,Cc1ccc(C)c(OCC(O)CN2CCC(CN3C(=O)c4cccc5cccc(c45)C3=O)CC2)c1 (stereo not given),"inconclusive: 15.8 µM [inhibitor, partial curve, poor fit]"
3,COc1ccc(OC)c(NC(=O)CN(Cc2ccc(Cl)cc2)S(C)(=O)=O)c1,"inconclusive: 89.1 µM [inhibitor, single point]"
4,COc1ccc(OC)c(/C=N/c2oc(-c3ccco3)c(-c3ccco3)c2C#N)c1,"inconclusive: 25.1 µM [inhibitor, partial curve, poor fit]"
5,CCOc1ccccc1N1CCN(C(=O)c2ccc3[nH]c(C)c(C)c3c2)CC1,"inconclusive: 25.1 µM [inhibitor, full curve]"
6,Cc1ccnc(NS(=O)(=O)c2ccc(N3C(=O)c4ccccc4C3=O)cc2)n1,inactive
7,Cn1cccc1C(=O)NC1CCCCC1,"inconclusive: 79.4 µM [inhibitor, partial curve, poor fit]"
8,OCC1(CCc2ccccc2)CCN(Cc2cnc(N3CCCC3)s2)CC1,inactive
9,O=[N+]([O-])c1cc([N+](=O)[O-])c(Oc2cccnc2Br)cc1NN1CCCCC1,"inconclusive: 12.6 µM [inhibitor, full curve]"
10,Cc1ccc(N2CCN(CC3CC=CCC3)CC2)cc1 (stereo not given),"inconclusive: 39.8 µM [inhibitor, single point]"
11,O=C(/C=C/c1ccccc1Cl)Nc1ccc2c(c1)C(=O)NC2=O,"inconclusive: 89.1 µM [inhibitor, single point]"
12,O=C(NNc1nc2ccc(Cl)cc2s1)c1cc(-c2cccs2)nc2ccccc12,inactive
13,COc1ccc(N)c2c1C(=O)c1ccccc1C2=O,active: 44.7 µM
14,O=C(Nc1nc(-c2ccccc2)cs1)c1ccccc1NS(=O)(=O)c1ccc(F)cc1,inactive
15,COC(=O)c1ccc(CN2CCCC(CO)(Cc3ccccc3F)C2)cc1 (stereo not given),inactive
16,C/C(=N\Nc1ccc(C(=O)O)cc1)c1ccc2c(c1)Nc1ccccc1S2,"inconclusive: 50.1 µM [inhibitor, partial curve]"
17,N#Cc1nc(COc2ccc(Br)cc2)oc1N1CCCCCC1,"inconclusive: 10 µM [inhibitor, full curve, poor fit]"
18,CCc1ccc2nc(N(CCCN(C)C)C(=O)c3ccc(S(=O)(=O)N4CCCc5ccccc54)cc3)sc2c1,"inconclusive: 50.1 µM [inhibitor, partial curve]"
19,CC1(C)C[C@@H](O)[C@]2(C)CC[C@]3(C)C(=CCC4[C@@]5(C)CC[C@H](O)[C@](C)(CO)C5CC[C@]43C)[C@@H]2C1 (stereo not given in full),inactive
20,CN(C)c1ccc(NC(=O)c2sc(SCC(=O)Nc3nccs3)nc2N)cc1,"inconclusive: 39.8 µM [inhibitor, partial curve, poor fit]"
21,COc1cc(C(c2c(C)[nH][nH]c2=O)c2c(C)[nH][nH]c2=O)cc(Cl)c1O,inactive
22,COc1ccc(S(=O)(=O)N(Cc2cccnc2)Cc2cc3ccccc3[nH]c2=O)cc1,inactive
23,O=C(Nc1nnc(S(=O)(=O)Nc2ccccc2)s1)C1CCCCC1,"inconclusive: 15.8 µM [inhibitor, partial curve]"

row,Compound,Potency
1,CCSS(=O)(=O)c1cccc2cccnc12,"inconclusive: 4.47 µM [inhibitor, full curve]"
2,CCN(CCNC(=O)C1CCN(Cc2nc(-c3cccc(Cl)c3)oc2C)CC1)c1ccccc1,"inconclusive: 2.82 µM [inhibitor, single point]"
3,Cn1c(O)c(N=NC(=O)C2COc3ccccc3O2)c2ccccc21 (stereo not given),"inconclusive: 20 µM [inhibitor, partial curve, poor fit]"
4,COc1ccc(CC(C)N2CCN(Cc3ccccc3)CC2)c(OC)c1 (stereo not given),inactive
5,CCc1ccc(OCCCCn2c(CCNC(=O)C3CCCCC3)nc3ccccc32)cc1,inactive
6,CC(CCN1CCN(c2ccccn2)CC1)c1ccccc1 (stereo not given),"inconclusive: 35.5 µM [inhibitor, partial curve]"
7,CCOC(=O)N1CCN(CC(O)COc2ccccc2C(C)C)CC1 (stereo not given),inactive
8,C/C(=C\c1ccccc1)CN1CCC(C(=O)N2CCCCC2)CC1,"inconclusive: 15.8 µM [inhibitor, full curve, poor fit]"
9,Cc1[nH]c2ccccc2c1C1(O)C(=O)N(Cc2ccccc2Cl)c2ccccc21 (stereo not given),"inconclusive: 35.5 µM [inhibitor, partial curve, poor fit]"
10,CCOC(=O)CN1C(=O)C2Cc3ccccc3CN2C1=S (stereo not given),"inconclusive: 79.4 µM [inhibitor, partial curve, poor fit]"
11,O=C(NC(=S)Nc1ccc(N2CCCCC2)cc1)c1ccco1,active: 15.8 µM
12,COCc1ccc(C(=O)N2CCCC(Nc3ccc(C(C)C)cc3)C2)s1 (stereo not given),"inconclusive: 79.4 µM [inhibitor, single point]"
13,CC(=O)Nc1ccc(S(=O)(=O)NCc2cc(=O)n(C)c(=O)n2C)cc1,inactive
14,C=CCc1cccc(/C=N/NC(=O)CCCNc2ccc(C)cc2)c1O,"inconclusive: 0.891 µM [inhibitor, full curve, poor fit]"
15,COc1cc(OC)c(NC(=O)N2CCc3cc(OC)c(OC)cc3C2CC(=O)O)cc1Cl (stereo not given),inactive
16,CC(C)CC(C(=O)O)N(Cc1ccccc1)Cc1ccccc1 (stereo not given),inactive
17,CC(NC(=O)c1ccc(Cl)cc1Cl)C(c1ccccc1)N1CCOCC1 (stereo not given),"inconclusive: 89.1 µM [inhibitor, partial curve, poor fit]"
18,Cc1cc2n(n1)SC(Nc1ccccc1)N2 (stereo not given),"inconclusive: 79.4 µM [inhibitor, single point]"
19,Cc1ccn2c(Nc3ccc4c(c3)OCCO4)c(-c3cccs3)nc2c1,"inconclusive: 15.8 µM [inhibitor, full curve, poor fit]"
20,Cc1ccc2c(c1)Cc1c(nc(-c3ccc(Cl)cc3)nc1SCC(=O)N1CCCCC1)O2,inactive
21,O=C(CSc1nnc(-c2ccc(Cl)cc2)o1)Nc1ccc(F)cc1,inactive
22,CN(CCOc1ccccc1)CC(=O)Nc1ccc(S(=O)(=O)N2CCCC2)cc1,"inconclusive: 25.1 µM [inhibitor, single point]"
